For part of its entries the source gives two or more results. This list holds those alone. There may be further records. Values that stand side by side are repeats across runs, samples, wells, individuals or studies.
Test system: Swiss mice, Sarcoma 180 sc, mean tumor weight T/C
Test: NCI In Vivo Anticancer Drug Screen. Data for tumor model Sarcoma 180 (subcutaneous) in Swiss mice
Details: endpoint: mean tumor weight, higher = larger tumour
Description: The antitumor activity of compounds was measured in mice bearing transplantable tumors. Survival or tumor size were measured and the results are expressed as the measurement made in the treated group (T) divided by the measurement made in the vehicle treated control group (C). The tumor model used in this assay is Sarcoma 180 (subcutaneous) in Swiss mice

[1] = dose: 100.0 mg/kg/injection, schedule: Q01DX007 (ip), vehicle: carboxymethylcellulose (CMC)

## OCC(F)(F)C(F)(F)C(F)(F)F
dose: 125.0 mg/kg/injection, schedule: Q01DX007 (ip), vehicle: saline
  T/C: 79 % of control and 109 % of control
dose: 500.0 mg/kg/injection, schedule: Q01DX007 (ip), vehicle: saline
  T/C: 59 % of control and 109 % of control

## CC1C[C@@H]2[C@H]([C@@H](O)C[C@@]3(C)[C@H]2CC[C@]3(O)C(=O)CF)[C@@]2(C)CCC(=O)C=C12 (stereo partly drawn)
dose: 140.5 mg/kg/injection, schedule: Q#A X014 (sc), vehicle: steriod suspending solution
  T/C: 30 % of control, 41 % of control, 57 % of control

## CCCOP(=S)(N1CC1)N1CC1
dose: 10.0 mg/kg/injection, schedule: Q#A X014 (ip), vehicle: saline
  T/C: 59 % of control and 91 % of control

## COC1C(OC(=O)/C=C/C=C/C=C/C=C/C(=O)O)CCC2(CO2)C1C1(C)OC1CC=C(C)C (stereo not drawn)
dose: 50.0 mg/kg/injection, schedule: Q01DX007 (ip), vehicle: carboxymethylcellulose (CMC)
  T/C: 30 % of control, 54 % of control, 65 % of control
[1]
  T/C: 25 % of control and 52 % of control

## Nc1ccc(C(=O)O)c(O)c1
dose: 191.75 mg/kg/injection, schedule: Q01DX007 (ip), vehicle: carboxymethylcellulose (CMC)
  T/C: 75 % of control and 105 % of control
dose: 383.5 mg/kg/injection, schedule: Q01DX007 (ip), vehicle: carboxymethylcellulose (CMC)
  T/C: 73 % of control, 84 % of control, 111 % of control

## CC1=C(CO)C(=O)O[C@@H]([C@@H](C)[C@H]2CC[C@H]3[C@@H]4C[C@H]5O[C@]56[C@@H](O)C=CC(=O)[C@]6(C)[C@H]4CC[C@]23C)C1
dose: 20.0 mg/kg/injection, schedule: Q01DX007 (ip), vehicle: carboxymethylcellulose (CMC)
  T/C: 38 % of control and 71 % of control
dose: 20.0 mg/kg/injection, schedule: Q01DX007 (ip), vehicle: saline
  T/C: 46 % of control, 47 % of control, 104 % of control
dose: 30.0 mg/kg/injection, schedule: Q01DX007 (ip), vehicle: saline
  T/C: 65 % of control and 93 % of control

## CCN(CC)P(=O)(N1CC1)N1CC1
dose: 1.5 mg/kg/injection, schedule: Q#A X014 (ip), vehicle: saline
  T/C: 47 % of control and 75 % of control
dose: 2.0 mg/kg/injection, schedule: Q#A X014 (ip), vehicle: saline
  T/C: 6 % of control and 76 % of control

## CC1OC(OC2C(CO)OC(O[C@H]3CC[C@@]4(C)C(=CC[C@H]5[C@@H]6C[C@@H]7O[C@@]8(CC[C@H](C)CN8)[C@@H](C)[C@@H]7[C@@]6(C)CC[C@@H]54)C3)C(OC3OC(C)C(O)C(O)C3O)C2O)C(O)C(O)C1O (stereo partly drawn)
dose: 10.0 mg/kg/injection, schedule: Q01DX007 (ip), vehicle: saline
  T/C: 55 % of control and 99 % of control

## O=C(Nc1ccc2cc(S(=O)(=O)O)ccc2c1)c1ccc(N=Nc2c(S(=O)(=O)O)cc3cc(S(=O)(=O)O)cc(NC(=O)c4ccccc4)c3c2O)cc1
dose: 27.5 mg/kg/injection, schedule: Q#A X014 (ip), vehicle: methylcellulose (MC)
  T/C: 52 % of control, 73 % of control, 98 % of control
dose: 62.5 mg/kg/injection, schedule: Q#A X014 (ip), vehicle: methylcellulose (MC)
  T/C: 33 % of control, 60 % of control, 92 % of control

## Nc1nc(=S)c2ncn(C3OC(CO)C(O)C3O)c2[nH]1 (stereo not drawn)
dose: 1.0 mg/kg/injection, schedule: Q01DX007 (ip), vehicle: carboxymethylcellulose (CMC)
  T/C: 39 % of control and 94 % of control
dose: 2.0 mg/kg/injection, schedule: Q01DX007 (ip), vehicle: carboxymethylcellulose (CMC)
  T/C: 27 % of control, 77 % of control, 102 % of control
dose: 4.0 mg/kg/injection, schedule: Q01DX007 (ip), vehicle: carboxymethylcellulose (CMC)
  T/C: 28 % of control, 62 % of control, 91 % of control
dose: 4.0 mg/kg/injection, schedule: Q#A X014 (ip), vehicle: carboxymethylcellulose (CMC)
  T/C: 22 % of control and 77 % of control
dose: 8.0 mg/kg/injection, schedule: Q01DX007 (ip), vehicle: carboxymethylcellulose (CMC)
  T/C: 12 % of control, 19 % of control, 108 % of control

## C[C@]12CCC(=O)C=C1[C@@H](F)C[C@@H]1[C@@H]2[C@@H](O)C[C@@]2(C)[C@H]1CC[C@]2(O)C(=O)CO
dose: 83.0 mg/kg/injection, schedule: Q01DX007 (sc), vehicle: steriod suspending solution
  T/C: 35 % of control and 76 % of control

## O=[n+]1c2c(n([O-])c3ccccc31)-c1cccc3cccc-2c13
dose: 93.0 mg/kg/injection, schedule: Q01DX007 (ip), vehicle: carboxymethylcellulose (CMC)
  T/C: 30 % of control, 51 % of control, 66 % of control
dose: 140.0 mg/kg/injection, schedule: Q01DX007 (ip), vehicle: carboxymethylcellulose (CMC)
  T/C: 25 % of control, 38 % of control, 59 % of control

## c1ccc2cc3c(cc2c1)Cn1c-3nc2ccccc21
[1]
  T/C: 48 % of control and 81 % of control
dose: 220.0 mg/kg/injection, schedule: Q01DX007 (ip), vehicle: carboxymethylcellulose (CMC)
  T/C: 32 % of control and 63 % of control
dose: 330.0 mg/kg/injection, schedule: Q01DX007 (ip), vehicle: carboxymethylcellulose (CMC)
  T/C: 19 % of control and 69 % of control
dose: 750.0 mg/kg/injection, schedule: Q01DX007 (ip), vehicle: carboxymethylcellulose (CMC)
  T/C: 20 % of control and 46 % of control

## CC(=O)[C@@]1(O)[C@H](C)C[C@H]2[C@@H]3C=C(C)C4=Cc5c(cnn5-c5ccccc5)C[C@]4(C)[C@H]3[C@@H](O)C[C@@]21C
dose: 0.25 mg/kg/injection, schedule: Q01DX007 (sc), vehicle: steriod suspending solution
  T/C: 33 % of control, 82 % of control, 84 % of control
dose: 0.35 mg/kg/injection, schedule: Q01DX007 (sc), vehicle: steriod suspending solution
  T/C: 24 % of control, 76 % of control, 111 % of control
dose: 0.5 mg/kg/injection, schedule: Q01DX007 (sc), vehicle: steriod suspending solution
  T/C: 22 % of control and 50 % of control

## CC/C(=C(/CC)c1ccc(O)cc1)c1ccc(O)cc1
dose: 88.5 mg/kg/injection, schedule: Q01DX007 (sc), vehicle: steriod suspending solution
  T/C: 51 % of control and 90 % of control

## CC1(c2ccccc2)O[C@@H]2C[C@H]3[C@@H]4CCC5=CC(=O)C=C[C@]5(C)[C@@]4(F)[C@@H](O)C[C@]3(C)[C@]2(C(=O)CO)O1 (stereo partly drawn)
dose: 3.9 mg/kg/injection, schedule: Q#A X014 (sc), vehicle: steriod suspending solution
  T/C: 23 % of control, 46 % of control, 56 % of control
dose: 5.85 mg/kg/injection, schedule: Q#A X014 (sc), vehicle: steriod suspending solution
  T/C: 18 % of control and 55 % of control
dose: 13.2 mg/kg/injection, schedule: Q#A X014 (sc), vehicle: steriod suspending solution
  T/C: 10 % of control, 17 % of control, 38 % of control

## CC[C@H](c1ccc(O)cc1)[C@@H](CC)c1ccc(O)cc1
dose: 31.0 mg/kg/injection, schedule: Q01DX007 (sc), vehicle: steriod suspending solution
  T/C: 20 % of control and 68 % of control

## CC1OC2CC(=O)OC2C2=C1C(=O)c1c(O)c3c(c(O)c1C2=O)C1CC(O)C3(O)C(C)O1 (stereo not drawn)
dose: 3.2 mg/kg/injection, schedule: Q01DX007 (ip), vehicle: saline
  T/C: 64 % of control and 95 % of control

## CC(C)CCCCCCCCCCCCC(=O)NCC(=O)NC1C(O)C(O)C(Nc2ncnc3nc[nH]c23)OC1C(O)CO (stereo not drawn)
dose: 0.4 mg/kg/injection, schedule: Q01DX007 (ip), vehicle: carboxymethylcellulose (CMC)
  T/C: 56 % of control and 107 % of control

From PubChem BioAssay AID342 (DTP/NCI, 2004)
